These results are taken from paper PMC5434977 (Analytical chemistry, 2016).

The test system of assay [1] is Neisseria meningitidis MTAN. As to conditions: substrate 2AMTA.
Another assay has as its target Escherichia coli MTAN (Escherichia coli, UniProt P0AF12).
Assay [2] deals with Staphylococcus aureus MTAN. As to conditions: substrate 2AMTA.

For orientation: Km means the substrate concentration at which the rate is half of its maximum. In general, kcat refers to the maximal rate divided by the concentration of active sites. Take 2-amino-5′-methylthioadenosine [2AMTA]: in assay [1], the Km was 7 ± 1.9 µM and the kcat stood at 1.9 ± 0.27 s⁻¹. Further, the “inhibition with respect to MTA” value at Escherichia coli MTAN (E. coli MTAN, 2AMTA concentrations up to 300 μM) is on record as “did not act as an inhibitor”. Also, at Escherichia coli MTAN (compared to hpMTAN), the “activity of E. coli MTAN with 2AMTA as substrate” value was “inactive”. Also, in assay [2], the Km was found to be 10.4 ± 4.2 µM and the kcat amounted to 1.8 ± 0.26 s⁻¹.
